Experimental data as given in paper PMC4336329 (PLoS ONE, 2015).
About 2,200 (0.71%) of roughly 310,000 compounds showed an effect of 50% or more. The effect is printed as a negative number. Some of the results follow.

target: human ether-à-go-go-related gene (hERG) potassium channel (human, UniProt Q12809); experiment: primary screen, population patch clamp on CHO cells stably expressing hERG
Sequence (Q12809 whole entry, looked up): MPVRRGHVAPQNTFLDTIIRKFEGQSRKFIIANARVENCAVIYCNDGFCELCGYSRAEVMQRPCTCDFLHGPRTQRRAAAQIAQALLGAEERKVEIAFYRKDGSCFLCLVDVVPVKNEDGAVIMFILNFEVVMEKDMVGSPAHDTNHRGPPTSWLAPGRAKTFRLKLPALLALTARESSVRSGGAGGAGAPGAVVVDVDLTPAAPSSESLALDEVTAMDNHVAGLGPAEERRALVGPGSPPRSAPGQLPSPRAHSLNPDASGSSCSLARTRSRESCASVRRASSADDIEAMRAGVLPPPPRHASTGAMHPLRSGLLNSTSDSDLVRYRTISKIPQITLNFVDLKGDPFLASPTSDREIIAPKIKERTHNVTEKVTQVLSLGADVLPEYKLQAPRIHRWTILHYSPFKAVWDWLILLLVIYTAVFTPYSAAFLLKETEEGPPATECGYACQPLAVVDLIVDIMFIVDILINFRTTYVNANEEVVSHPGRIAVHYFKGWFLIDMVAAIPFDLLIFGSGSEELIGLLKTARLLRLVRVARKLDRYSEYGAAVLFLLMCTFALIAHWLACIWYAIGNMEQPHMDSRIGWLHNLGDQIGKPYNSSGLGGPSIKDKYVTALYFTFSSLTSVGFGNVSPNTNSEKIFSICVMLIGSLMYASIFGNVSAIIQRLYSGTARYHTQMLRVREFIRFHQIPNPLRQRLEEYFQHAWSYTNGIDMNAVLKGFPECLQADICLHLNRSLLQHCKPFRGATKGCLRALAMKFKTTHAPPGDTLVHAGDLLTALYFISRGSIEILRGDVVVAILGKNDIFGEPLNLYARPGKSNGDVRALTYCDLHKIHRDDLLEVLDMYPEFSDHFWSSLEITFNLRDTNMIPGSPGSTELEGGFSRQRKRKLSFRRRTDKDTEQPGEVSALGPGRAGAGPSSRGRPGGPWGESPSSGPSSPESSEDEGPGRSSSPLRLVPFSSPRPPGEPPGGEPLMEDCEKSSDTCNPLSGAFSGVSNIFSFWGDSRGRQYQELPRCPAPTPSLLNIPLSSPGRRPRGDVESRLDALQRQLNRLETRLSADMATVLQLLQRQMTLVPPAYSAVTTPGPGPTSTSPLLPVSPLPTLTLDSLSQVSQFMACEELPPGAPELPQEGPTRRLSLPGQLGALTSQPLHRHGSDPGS

SMILES | hERG current change (%, negative = inhibition) at 1uM
COc1ccccc1N(CC(=O)NCCc1ccccc1)C(=O)CCC(=O)Nc1ccccn1 | 4.77%
Cc1ccc2c(c1)N(CC(=O)Nc1ncccc1C)C(=O)C(C(C)C)O2 (centres unmarked) | 15.8%
O=C(Nc1ccccc1C(=O)O)c1ccc2c(c1)C(=O)N(c1cccc([N+](=O)[O-])c1)C2=O | 13.1%
O=C1COc2ccc(OCc3ccc(F)cc3)cc21 | 0.352%
CCn1ccnc1CNC(=O)c1ccc2oc(CCCc3ccccc3)nc2c1 | 4.28%
COc1cc(/C=N/NC(=O)c2ccc(CSc3nncn3C)cc2)ccc1OCC(=O)N1CC(C)OC(C)C1 (centres unmarked) | 9.4%
Cc1ccc(OCc2cc(C(=O)NCc3cn4ccccc4n3)no2)cc1C | -0.347%
CC1CCCN(C(=O)C2CCN(CC3CC=CCC3)CC2)C1.O=C(O)C(=O)O (centres unmarked) | -0.802%
COc1ccc(CN2C3CCCC2CC(NC(=O)Nc2ccccc2C)C3)cc1 (centres unmarked) | -36.5%
O=C1C2C3C=CC(CC3)C2C(=O)N1c1ccc(Cl)cc1 (centres unmarked) | 13.9%
Cc1ccc(CC(=O)NCCS(=O)c2ccc(Cl)cc2)cc1 (centres unmarked) | -5.69%
O=C1NC(=Nc2cccc(Cl)c2)SC1Cc1cccc(Cl)c1Cl (centres unmarked) | 13.4%
COc1ccc(C2c3[nH]c4ccccc4c3CCN2C(=O)c2ccc(=O)n(C)n2)c(F)c1 (centres unmarked) | 17.7%
Cc1ccc(S(=O)(=O)N2CCC(=O)N(CCOCc3cccc(C)c3)CC2)cc1 | 6.47%
C/C(Cl)=C\Cn1c(N2CCCCCC2)nc2c1c(=O)n(C)c(=O)n2C | 10.2%
COc1cccc(N(C(=O)c2snc(C(N)=O)c2N)C(C(=O)NCC2CCCO2)c2cccs2)c1 (centres unmarked) | 11.5%
CNC(=S)N/N=C/c1cc(C)ccc1C | 5.85%
O=C1NC(=O)[C@]2(Cc3ccccc3N3CCN(c4ccccc4)CC32)C(=O)N1c1ccccc1 (some centres unmarked) | -0.115%
CCOC(=O)[C@@H]1[C@H]2COc3ccc(Br)cc3[C@H]2N2C(=O)N(c3ccc(Br)cc3)C(=O)[C@]12C | 9.6%
CCCCCn1c(NC2CCCCC2)nc2c1c(=O)[nH]c(=O)n2C | 4.15%
CSCC(=O)N1CCCC(CNC(=O)c2ccc(-c3ccccc3)cc2)C1 (centres unmarked) | -1.78%
CCc1nc(NCCO)c(C#N)c2c1CCCC2 | 13.4%
O=c1cc(-c2ccccc2)nc2cc(-c3ccc(Br)cc3)[nH]n12 | 14.9%
